The values below come from article PMC4336329 (PLoS ONE, 2015).

Among all 310,000 compounds or so, about 14,000 (4.5%) showed an effect of 50% or more. The effect is printed as a negative number. Some of the results follow.
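Note: peak tail current of the secondary pulse compared with the same well before compound.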

The test deals with human ether-à-go-go-related gene (hERG) potassium channel (human, UniProt Q12809). In words: primary screen, population patch clamp on CHO cells stably expressing hERG.
human ether-à-go-go-related gene (hERG) potassium channel, sequence (Q12809 whole entry, looked up): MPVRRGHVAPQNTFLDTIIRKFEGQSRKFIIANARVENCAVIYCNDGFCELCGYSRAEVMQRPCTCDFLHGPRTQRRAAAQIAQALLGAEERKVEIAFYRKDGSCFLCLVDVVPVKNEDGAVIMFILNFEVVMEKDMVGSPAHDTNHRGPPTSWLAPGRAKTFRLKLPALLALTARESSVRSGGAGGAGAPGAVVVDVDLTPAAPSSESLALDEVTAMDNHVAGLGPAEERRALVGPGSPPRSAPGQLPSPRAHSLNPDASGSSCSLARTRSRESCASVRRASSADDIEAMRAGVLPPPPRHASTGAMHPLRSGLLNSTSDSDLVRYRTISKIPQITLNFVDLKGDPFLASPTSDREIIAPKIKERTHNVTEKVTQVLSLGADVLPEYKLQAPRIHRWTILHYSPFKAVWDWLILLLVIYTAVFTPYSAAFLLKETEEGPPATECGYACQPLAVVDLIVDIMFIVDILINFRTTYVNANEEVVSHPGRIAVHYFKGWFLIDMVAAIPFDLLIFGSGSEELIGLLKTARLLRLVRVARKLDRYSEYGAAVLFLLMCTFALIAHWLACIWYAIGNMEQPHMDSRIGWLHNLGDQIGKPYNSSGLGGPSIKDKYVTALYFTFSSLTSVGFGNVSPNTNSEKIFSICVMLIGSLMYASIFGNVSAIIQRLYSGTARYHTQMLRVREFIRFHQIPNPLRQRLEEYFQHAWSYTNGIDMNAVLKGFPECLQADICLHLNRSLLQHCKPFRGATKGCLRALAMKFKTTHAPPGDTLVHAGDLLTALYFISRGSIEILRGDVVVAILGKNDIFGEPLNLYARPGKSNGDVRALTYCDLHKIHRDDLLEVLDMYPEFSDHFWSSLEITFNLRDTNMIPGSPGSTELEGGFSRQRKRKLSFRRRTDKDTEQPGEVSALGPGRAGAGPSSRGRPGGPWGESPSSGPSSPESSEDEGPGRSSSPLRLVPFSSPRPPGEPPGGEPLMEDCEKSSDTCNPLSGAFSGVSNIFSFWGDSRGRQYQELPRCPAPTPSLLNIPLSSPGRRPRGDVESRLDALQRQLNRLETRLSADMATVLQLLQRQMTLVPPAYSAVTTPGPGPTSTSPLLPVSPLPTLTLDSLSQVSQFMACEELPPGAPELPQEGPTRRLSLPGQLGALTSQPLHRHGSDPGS
In the case of `COc1ccc(Cc2nnc(NS(=O)(=O)c3ccc(Cl)cc3)s2)cc1OC`, the “hERG current change (%, negative = inhibition) at 10uM” value was 8.52%.
As for `c1ccc(-n2nnnc2-c2cnc(-c3cccnc3)nc2-c2cccs2)cc1`, the figure is -10.6%.
As for `Cc1ccc(S(=O)(=O)NC(C)(C)C)cc1C(=O)OCC(=O)N1CCCC1=O`, the figure is -2.21%; as for `CCCCCC(=O)NNC(=O)Nc1ccccc1`, 5.05%; as for `CC(C)CNC(=O)c1c(N)n(Cc2ccc3c(c2)OCO3)c2nc3ccccc3nc12`, 7.61%.
As for `O=C(c1cc2nc(-c3cccs3)cc(C(F)(F)F)n2n1)N1CCCc2ccccc21`, the figure is 3.7%; as for `O=C(O)c1ccc(N2CCCS2(=O)=O)cc1`, 15.3%.
Consider `COc1ccccc1-c1ccc(Nc2cccc(C(C)=O)c2)nn1`, for which the “hERG current change (%, negative = inhibition) at 10uM” value worked out at 3.77%.
As for `CC(NC(=O)c1cccs1)C(S)c1ccccc1` (stereo not shown), the figure is 0.421%; as for `Cc1ccc(-c2cc(-c3ccccc3Cl)[nH]n2)c(O)c1`, -9.2%; as for `O=C(CSc1nc2ccccc2n1Cc1ccccc1Cl)N/N=C/c1ccccc1C(=O)O`, -0.999%.
As for `O=C(O)CCCN1C(=O)/C(=C/C=C/c2ccco2)SC1=S`, the figure is 24.4%; as for `CCC(=O)N1CCN(c2ccccc2NC(=O)c2cccs2)CC1`, -50.4%; as for `CCCCC1(C)NC(=O)c2c(C)sc(C(=O)OCC)c2N1` (stereo not shown), 4.17%.
Regarding `COc1c(F)c(F)c(C(=O)O)c(Nc2cccc(C)c2)c1F`, the “hERG current change (%, negative = inhibition) at 10uM” value came to 23.3%.
As for `COCCN1C(=S)N[C@@H](c2cccc(F)c2)C(C(=O)OC)=C1C`, the figure is -15.8%; as for `COc1ccc(OC)c(S(=O)(=O)N(C)CC(=O)Nc2ccc3c(c2)OCCO3)c1`, 5.37%; as for `CCOc1ccc(N(C(=O)c2snc(C(N)=O)c2N)C(C(=O)NCC2CCCO2)c2c[nH]c3ccccc23)cc1` (stereo not shown), 14%.
As for `CCOc1ccc(NC(=O)N(CCC(C)C)C2CCN(C(C)=O)CC2)cc1`, the “hERG current change (%, negative = inhibition) at 10uM” value was -9.87%.
Then `Cc1cccc(N2CCN(S(=O)(=O)c3cn(C)cn3)CC2)c1C`, with 11.6%.
Then `Cc1cc(OCC(=O)N2CCN(c3ccccc3)CC2)c2c(C)c(C)c(=O)oc2c1`, with 23.4%; and `Cc1ccc(-c2cc(C(=O)Nc3nccs3)c3ccccc3n2)c(C)c1`, with 12.8%.
As for `CC(C)c1nnc(NC(=O)CCS(=O)(=O)Cc2ccccc2)s1`, the figure is 11%; as for `O=C(N/N=C/c1ccccn1)C1CC1`, -69.4%; as for `CCOc1ccc(NC(=O)CC2C(=O)NCCN2C(=O)Nc2ccccc2)cc1` (stereo not shown), 0.493%.
In the case of `COc1cc(SC)ccc1C(=O)NCCCOC(C)C`, the “hERG current change (%, negative = inhibition) at 10uM” value came to 1.85%.
As for `Cc1cc(NC(=O)CSc2nnc(-c3ccncc3)n2N)ccc1Br`, the figure is -16.6%.
Then `COC(=O)C1CCN(C(=O)COc2ccc(N(C)S(=O)(=O)c3ccc(C)cc3)cc2)CC1`, with -33.8%.
Then `O=C(CCNC(=O)c1ccc(Br)cc1)Nc1cccc(S(=O)(=O)N2CCCCC2)c1`, with -36.1%.
For the compound `O=C(COC(=O)c1ccc([N+](=O)[O-])s1)Nc1ccc(F)cc1`, the “hERG current change (%, negative = inhibition) at 10uM” value is on record as -12.2%.
As for `CCN(CC)CCNC(=O)c1ccc(NC(=O)c2ccc(COc3ccccc3)cc2)cc1`, the figure is 13.2%.
Then `CC(/C=C/c1ccccc1)=N\NC(=O)c1ccncc1`, with -28%.
As for `Cc1ccc(C)c(S(=O)(=O)N2CCCOC2CNC(=O)C(=O)NCc2ccncc2)c1` (stereo not shown), the figure is 0.734%.
As to `CCOC(=O)N1CCC(Nc2c(N3CCN(c4cc(Cl)ccc4C)CC3)c(=O)c2=O)CC1`, the “hERG current change (%, negative = inhibition) at 10uM” value is given as -80.4%.
With `CC(C)C[C@H](NC(=O)C1CC(=O)N(c2ccc3c(c2)OCO3)C1)C(=O)NC1CCCC1` (stereo partly shown), the “hERG current change (%, negative = inhibition) at 10uM” value is listed as -0.704%.
Then `CC(=O)C1C(=O)c2c(cccc2[N+](=O)[O-])C1=Nc1ccc(S(N)(=O)=O)cc1` (stereo not shown), with -7.76%; and `Cl.c1cncc(CNC2CCCCC2)c1`, with 16%; and `NC(=O)c1ccccc1NS(=O)(=O)c1ccc2c(c1)OCCO2`, with 0.161%.
Then `COc1ccc(CCCc2n[nH]c(=S)o2)c(C)c1`, with 17.5%; and `Cc1c(N=c2c(=O)c3ccccc3c2=O)c(=O)n(-c2ccccc2)n1C`, with -11.8%.
Then `COc1ccc(S(=O)(=O)NCCCCOc2ccc(Cl)cc2)cc1`, with 9.11%; and `CC(=O)Nc1ccc(S(=O)(=O)N2c3ccccc3C(C)=CC2(C)C)cc1`, with -20.1%.
Regarding `O=C(O)c1cccc(S(=O)(=O)Nc2ccccc2C(=O)NCCc2ccccc2)c1`, the “hERG current change (%, negative = inhibition) at 10uM” value is on record as 24.9%.
As for `O=C(Nc1ccc(OCc2ccccc2)cc1)c1cccnc1`, the figure is 10.7%.
Then `COc1ccc(C(=O)NC(=S)Nc2ccc(S(=O)(=O)Nc3cc(OC)ncn3)cc2)cc1`, with 15.4%; and `CC(C)N1CCc2c(sc(NC(=O)c3ccc(S(=O)(=O)N4CCCCC4C)cc3)c2C(N)=O)C1` (stereo not shown), with -43.6%.
As for `CCOC(=O)c1cnc(SCC(=O)OC)nc1N`, the figure is 52.5%.
Regarding `CN(C)c1ccc(/C=C(/NC(=O)c2ccccc2)C(=O)N2CCCC2)cc1`, the “hERG current change (%, negative = inhibition) at 10uM” value stood at 11.4%.
Regarding `CN1CCN(CCC(=O)Nc2ccc(Br)cc2)CC1`, the “hERG current change (%, negative = inhibition) at 10uM” value worked out at 12.5%.
As for `CC1C[N+](=C2C=C(N3CCOCC3)CC(C)(C)C2)CC(C)O1.[I-]` (stereo not shown), the figure is 12.4%; as for `CCC1CCC(C(=O)NC(CCSC)C(=O)NCCc2ccc(S(N)(=O)=O)cc2)CC1` (stereo not shown), 7.77%; as for `CCCc1[nH]nc2c1C(c1ccccc1OC)C(C#N)=C(N)O2` (stereo not shown), 3.53%.
Then `Cc1ccc(NC(=O)c2c([N+](=O)[O-])cnn2C)cc1C`, with 10.5%; and `N#Cc1cccc(N=Cc2c(O)ccc3ccccc23)c1`, with 9.48%; and `Cc1cccc(NC(=O)CN2CCc3cc4c(cc3C2)OCCCO4)c1`, with 20.1%.
As for `O=C(N/C=C\n1cnc2cc(C(F)(F)F)ccc21)c1ccc([N+](=O)[O-])cc1`, the figure is -7.31%.
`CCN(CC)CCN(C(=O)CN1C(=O)c2ccccc2C1=O)c1nc2cc3c(cc2s1)OCO3.Cl`: the “hERG current change (%, negative = inhibition) at 10uM” value is recorded as -17.8%.
As for `Cc1ccc2c(c1)C(=O)CCN2`, the figure is -13.5%.
Regarding `COc1ccc(CNC(=O)COC(=O)/C=C/c2ccc(S(=O)(=O)N3CCOCC3)cc2)cc1`, the “hERG current change (%, negative = inhibition) at 10uM” value was 16.2%.
Then `O=C(c1ccco1)N1CCN(S(=O)(=O)c2ccc(S(=O)(=O)NC3CC3)cc2)CC1`, with -32%.
Then `CCOC(=O)Oc1ccc2c(=O)c(Oc3cccc(C)c3)coc2c1`, with -23.1%.
As for `CCOC(=O)N1CCN(C(=O)CSc2ccc3nnc(-c4cccnc4)n3n2)CC1`, the figure is -23%; as for `Cc1ccc(S(=O)(=O)N2CCCC2CNC(=O)c2ccc3c(c2)OCO3)cc1` (stereo not shown), -17.5%; as for `C/C(CC(C)C)=N\Oc1nc(C)cc(C)n1`, 26.2%.
As to `COc1ccc(CC2(CO)CCN(C(C)COc3ccccc3)CC2)cc1` (stereo not shown), the “hERG current change (%, negative = inhibition) at 10uM” value is recorded as -82%.
Then `CC1Cc2ccccc2N1CC(=O)NCc1ccccc1Cl` (stereo not shown), with -14.8%; and `O=C(CCNC(=O)c1ccc([N+](=O)[O-])cc1)NCCCN1CCCC1=O`, with 6.84%; and `O=C(CN1CCN(c2ccc(F)cc2)CC1)Nc1ccc(-n2cnnn2)cc1`, with -5.63%.
Then `COc1ccc(S(=O)(=O)N2CCCC2=O)cc1N(C)S(C)(=O)=O`, with 13.8%.
Then `COc1ccc2ccccc2c1/C=N/NC(=S)Nc1cc(S(=O)(=O)N2CCOCC2)ccc1N1CCOCC1`, with 19%; and `Cc1oc(-c2ccccc2)nc1C(=O)Nc1nccs1`, with 14.7%.
Turning to `NC(=O)c1ccc(C23CC4CC(CC(C4)C2)C3)o1`, the “hERG current change (%, negative = inhibition) at 10uM” value is listed as -17%.
Then `CCC(=O)Nc1ccc(N/C(N)=N/c2nc(C)cc(C)n2)cc1`, with -4.25%; and `Cc1csc2nc(COC(=O)c3ccc(Cl)c([N+](=O)[O-])c3)cc(=O)n12`, with -63.1%; and `Cc1cc(C)c2nc(SC(C)C#N)cc(C)c2c1` (stereo not shown), with 13.5%.
As for `CCOc1ccccc1N1C(=O)CC(N(O)c2ccccc2)C1=O` (stereo not shown), the “hERG current change (%, negative = inhibition) at 10uM” value was 7.14%.
On to `CS(=O)(=O)N(CC(=O)NCC1CCCO1)c1cccc([N+](=O)[O-])c1` (stereo not shown), for which the “hERG current change (%, negative = inhibition) at 10uM” value turned out to be 26.6%.
As for `CC(C)c1ccc(C(=O)CC2(O)C(=O)N(CN3CCOCC3)c3ccccc32)cc1` (stereo not shown), the “hERG current change (%, negative = inhibition) at 10uM” value is given as 10.4%.
As for `O=C1C=C(c2ccccc2)OC2(CCCC2)O1`, the figure is -24.6%.
As for `Cc1c(Cl)cccc1NC(=O)CCN1CCCCCC1`, the figure is -3.92%; as for `NC(=NCCc1ccc(Cl)cc1)NS(=O)(=O)c1ccccc1`, 4.8%.
As for `O=[N+]([O-])c1cnn(-c2nc(-c3ccco3)cc(C(F)(F)F)n2)c1`, the figure is -0.0425%.
Consider `O=C(O)CC1(CC(=O)Nc2cccc(C(F)(F)F)c2)CCCC1`, for which the “hERG current change (%, negative = inhibition) at 10uM” value is recorded as 10.5%.
As for `Cc1ccc(S(=O)(=O)CC(=O)c2ccc3c(c2)OCCO3)cc1`, the figure is -1.01%; as for `NC(=O)c1ccc(Sc2nnc(-c3cccs3)n2CC2CCCO2)c([N+](=O)[O-])c1` (stereo not shown), -3.51%.
Then `CN(C)c1ccc(-c2nc3ccccn3c2/N=C/c2ccc(Br)cc2)cc1`, with 6.11%; and `O=[N+]([O-])c1ccc(C(=S)N2CCCC2)cc1`, with 0.872%.
Then `Cn1cc(CN2CCC(N3CCNC(=O)CC3)CC2)c(-c2ccccc2F)n1`, with 8.43%.
